The list shows a part of the results.
T1: UNK ZnF1-3 (human, UniProt Q9C0B0 31-174)
T1 sequence: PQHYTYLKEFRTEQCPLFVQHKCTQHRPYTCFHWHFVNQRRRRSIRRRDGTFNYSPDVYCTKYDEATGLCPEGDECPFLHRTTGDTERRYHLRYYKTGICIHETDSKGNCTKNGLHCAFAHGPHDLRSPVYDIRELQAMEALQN

B1: chr1:122009976:122009977:-_ENSMUSG00000026385_ENSMUST00000027634|mus_mus|motif|central (ssRNA)
RNA: GGGAGUUCUACAGUCCGACGAUCAAUUGAUUGUAGGUAAAAACUACAGAGGGAGGAGGAGCAGAGGUUAACGCUGGCCCGGAUGUAUCACAGCCAUAUCAUCUACAUUAGAAAAAACCAAGGCAUUAUGUCCUCACAGGUCACCAACAGAGGAUUGAGCAUCA
B2: chr5:128440902:128440903:+_ENSG00000066583_ENST00000173527|hu_mus|hu_hu_hu_mus_True|88_108 (ssRNA)
RNA: GGGAGUUCUACAGUCCGACGAUCUUGAACCGUGCUCCCAAGUCCUUUAGGGUAUUGUUCCGUUAUGAUAACUGGAAUCCCUAAGAUCCGAGCUCCUUGCAACAGUCUCUGUCCCACACUAAUGAUGUCCCCAAAGUAUUUGAUCAACAGAGGAUUGAGCAUCA
B3: chr17:30807568:30807569:+_ENSG00000108671_ENST00000457654|hu_hu|FALSE|FALSE (ssRNA)
RNA: GGGAGUUCUACAGUCCGACGAUCGUAGAGGGAAUCCACUACUUUGCUCAUGUUCUGAAUUGUUUCCAGAGCAGCUUCGUAAGUUUUAUCUACUGGGGGUUCAUCGAAAAUAAUCAGGACACCCUCCCCCUGGUCCAAAAUCCCCAACAGAGGAUUGAGCAUCA
B4: chr5:22955990:22955991:+_ENSMUSG00000029004_ENSMUST00000094962|mus_hu|motif|central (ssRNA)
RNA: GGGAGUUCUACAGUCCGACGAUCUGCAUUGGUAUCCAAAACACUGGGGCAUGCCAGCCACAGUGCUCAUUGCAAACAUCGGAGUGCAUCCACAAACCCAUGAGAUGUCUGGUAAAUCUGAGGUCCAAGAAAGAAUAAAUGUCUCAACAGAGGAUUGAGCAUCA
B5: chr6:133136146:133136147:+_ENSG00000112306_ENST00000230050|hu_mus|motif|central (ssRNA)
RNA: GGGAGUUCUACAGUCCGACGAUCACACAGAUGGGCUUGGCGCUUGUCUAAGGCUUUGGCAGCUUCGCGUAUGCCACGUGCGGGGCCAUCGUGGAUGAGGGCGGUCUUCAGCACCUCUUGUAGAGCAGUGUUGACGUCCAUUACCAACAGAGGAUUGAGCAUCA
B6: chr17:62496765:62496766:-_ENSG00000108654_ENST00000581693|hu_hu|FALSE|FALSE (ssRNA)
RNA: GGGAGUUCUACAGUCCGACGAUCUGCUUGAUUAGCUUCACGAAGCACAGAGAUAAGGUCGCUCACUUGCUUUAUGUUAUUAGGUGUAAAGAAAGUGUAUGCUGUGCCUGUUUUGGUACUGCGAGCAGUUCUUCCAAUUCGAUGCAACAGAGGAUUGAGCAUCA
B7: chr12:57064132:57064133:-_ENSG00000110958_ENST00000262033|hu_mus|FALSE|FALSE (ssRNA)
RNA: GGGAGUUCUACAGUCCGACGAUCCGACAUGUCUUCAUCUGAGUCAUCCUCCCAGUCUUUCCAAUUAUUGAAGUCCACACUGAGCCAAUUAAGCUUUGCCCUUUCCUUUGUUAACCUAGGCCAUGACUGGCCGGAUUCUCCUUUCAACAGAGGAUUGAGCAUCA
B8: chr3:176767854:176767855:-_ENSG00000177565_ENST00000430069|hu_hu|hu_hu_hu_mus_False|38_78 (ssRNA)
RNA: GGGAGUUCUACAGUCCGACGAUCGACAUCCUUGUUACUGGGCACGUCCUGCCCUCCUUCUCGUAUACAGUGUCUAAGCACGAGCUGCGUAGGGCCACUGGUGCUGUUCUCACUGAGGUUCCAGAUUCUUGCCGUGGAGUCUCCCAACAGAGGAUUGAGCAUCA
B9: chr7:87731985:87731986:-_ENSMUSG00000030527_ENSMUST00000122255|mus_mus|motif|central (ssRNA)
RNA: GGGAGUUCUACAGUCCGACGAUCUGAAGAGAGGUCUGGGGAAGCCGGUAGCCACUUCAAUGCUGCCGCCUAAGACAGGCGGGUCACAAAGGCAGCAUCGAGUGCAGGCUCACACGACUGCAGCAGGGCAACGCAGUCUCCUGCCAACAGAGGAUUGAGCAUCA
B10: chrX:98860016:98860017:+_ENSMUSG00000034160_ENSMUST00000044475|mus_mus|FALSE|FALSE (ssRNA)
RNA: GGGAGUUCUACAGUCCGACGAUCUUCUUUAUAGUGCAUCAGUGCUUCCUGCAGCUUGCCCUGCUGUUGCAGUACACUUGCUAAAUUGGAAUGUGCAGCAGCAAACUCUGGGAAGACUUCUAAUGCUUUGCGAUACAGGCGAACCAACAGAGGAUUGAGCAUCA
B11: 82950143_82950263_550_CDS_ENSG00000005700_ENST00000306270|human|control|control (ssRNA)
RNA: GGGAGUUCUACAGUCCGACGAUCAUCCAAAGCAUGCUUCAGGGAUCGACACUUUGAUGUGCAGUCAGGCAUGGGUGAACUCAUCCUAACUGUUUUUAUACCACUUACUUCAGAAUCGUGAAAACUAAUUUUAAAAAAUGAAAACAACAGAGGAUUGAGCAUCA
B12: chr3:101181902:101181903:+_ENSMUSG00000042035_ENSMUST00000043983|mus_mus|FALSE|FALSE (ssRNA)
RNA: GGGAGUUCUACAGUCCGACGAUCUGAGAUCGCUCAUUCGGAUCCCCCAAAGGGAACCAGGCAGGUUUUGUCAAAACCCAAGACAGCCAAAACACCCGGAUUGGUAAAGACACUUCGGAUUUCUUCAUCAAAAAGUCCAUCUCCCAACAGAGGAUUGAGCAUCA
B13: 119178578_119178698_1814_3pUTR_ENSMUSG00000018076_ENSMUST00000100816|mouse|control|control (ssRNA)
RNA: GGGAGUUCUACAGUCCGACGAUCGAGGCAGUCUUUGGCCUACGAGGACAGUUCUGUCCUCUAUAGUAGACAGCUGCUGAAGGUCUAGCCCAUUUCCAUAGAGGGCAGGGUUCACAGGGACAGAAGGUGGGUCCAAACUCUCUGCAACAGAGGAUUGAGCAUCA
B14: chr7:44244176:44244177:+_ENSG00000106636_ENST00000223369|hu_mus|hu_hu_hu_mus_False|1_18 (ssRNA)
RNA: GGGAGUUCUACAGUCCGACGAUCACUGUCGCUCCGGACGUAGACAUGGCAAAGAUACUCUUGUUCUUUGACAGAAGCUCUGCUGCCUUUCCCCGAGCGUUCCACAAUCAGUUGACUCGUGAAGGUCAUGAAUUCCUGAACGCUCAACAGAGGAUUGAGCAUCA

biological target: T1, UNK ZnF1-3; test: nsRBNS (natural sequence RNA bind-n-seq); RBNS binding buffer (assumed for nsRBNS): 25 mM Tris pH 7.5, 150 mM KCl, 3 mM MgCl2, 0.01% Triton X-100, 500 ug/ml BSA, 20 U/ml SUPERase-In, 4 C; UNK is unkempt and MSI1 is Musashi-1; names of the RNAs are library labels; protein concentration not given here; high values mean tight binding

**Q.** With B1 as the binder, how does the binding signal read?
**A.** 2.46 enrichment R

**Q.** Which binding signal does the source give for B2 here?
**A.** 0.749 enrichment R

**Q.** With B3 as the binder, how does the binding signal read?
**A.** 1.02 enrichment R

**Q.** Which binding signal does the source give for B4 here?
**A.** 1.28 enrichment R

**Q.** With B5 as the binder, how does the binding signal read?
**A.** 0.973 enrichment R

**Q.** With B6 as the binder, how does the binding signal read?
**A.** 0.558 enrichment R

**Q.** B7 was tested. Which binding signal did it give?
**A.** 0.639 enrichment R

**Q.** For B8, which binding signal is on record?
**A.** 0.448 enrichment R

**Q.** With B9 as the binder, how does the binding signal read?
**A.** 0.764 enrichment R

**Q.** B10 was tested. Which binding signal did it give?
**A.** 0.692 enrichment R

**Q.** How did the binding signal turn out when B11 was run?
**A.** 1.21 enrichment R

**Q.** How did the binding signal turn out when B12 was run?
**A.** 1.15 enrichment R

**Q.** How did the binding signal turn out when B13 was run?
**A.** 0.884 enrichment R

**Q.** With B14 as the binder, how does the binding signal read?
**A.** 0.566 enrichment R

Source: paper PMC12136788
